Data taken from PubChem BioAssay AID434955 (Southern Research Specialized Biocontainment Screening …, 2010).
This is one part of the list. The main result of the screen is listed elsewhere. These columns were measured beside it and carry no call. Compounds called inactive in the main read-out are mostly missing here.

Assay: beta-lactam sensitization of Mtb H37Rv, H37Rv (AID 434955);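 note: growth measured after seven days incubation then overnight dye step; 0% = bacteria only wells and 100% = bacteria with antibiotic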
Settings: M. tuberculosis H37Rv growth with meropenem, percent inhibition; measured here: primary screen without meropenem; at 25 µM
`Cc1cccc(C(=O)Nc2nnc(SCC(=O)NCc3ccco3)s2)c1` showed an inhibition of 5.04%. Compound `COc1ccccc1NC(=O)NCCN1CCN(c2cccc(Cl)c2)CC1` has an inhibition of 10.6%. Compound `CCc1ccc(OCC(=O)Nc2ccc3c(c2)COC3=O)cc1` has an inhibition of 87%. `Cc1ccc(-c2nc3ccccc3o2)cc1NC(=S)NC(=O)/C=C/c1ccco1` gave an inhibition of -10.3%. In the case of `CCc1noc(C)c1C(=O)OCC(=O)c1ccccc1OC`, the inhibition is reported as 12%. In the case of `O=C(Cc1cccc2ccccc12)N/N=C/c1ccc(O)c([N+](=O)[O-])c1`, the inhibition is reported as 22.5%. In the case of `COc1cc(/C=N/NC(=O)C(C)Nc2n[nH]c(=O)[nH]c2=O)ccc1O` (centres undefined), the inhibition is reported as -2.67%. `Cc1cc(C)cc(OCC(=O)NNC(=O)c2ccoc2C)c1` gave an inhibition of -9.06%. Work on `CCOC(=O)c1[nH]c(C)c(C(=O)Nc2ccccc2F)c1C` yielded an inhibition of -1.43%. For `C=CCn1c(=NC(=O)c2sc3ccccc3c2Cl)sc2cc(S(N)(=O)=O)ccc21`, the inhibition was 1.04%. For `CCCCNC(=O)c1onc(CSc2ccc(F)c(F)c2)c1C(=O)O`, the inhibition was -2.03%. With `CCOc1ccc(-c2nnc(-c3cccs3)o2)cc1OCC` the inhibition was 48.8%. For `CCOC(=O)CSc1nnc(NC(=O)c2cccc(S(=O)(=O)N3CCCCC3)c2)s1`, the inhibition was 49%. With `O=C1CS/C(=N/N=C\c2ccn[nH]2)N1` the inhibition was 11.4%. With `Cc1c(Cl)cccc1NC(=O)CSc1nc2c(c(=O)[nH]1)CCCC2` the inhibition was -2.92%. `CC(=O)c1ccc(C(=O)N2CCCC(CNC(=O)c3ccccc3Cl)C2)cc1` (centres undefined) showed an inhibition of -4.64%. In the case of `CC(=O)c1ccc(OCc2cc(C(=O)N(C)Cc3nc4c(C)cccc4[nH]3)no2)cc1`, the inhibition is reported as 10.9%. For `COc1ccc(CNS(=O)(=O)c2c(C)[nH]c(C)c2C(=O)N2CCCC2)cc1`, the inhibition was 1.27%. In the case of `CN(CC1CCCO1)S(=O)(=O)c1ccc(C(=O)Nc2ccc([N+](=O)[O-])cc2)cc1` (centres undefined), the inhibition is reported as 16.9%. `Cc1cccc2nc(COc3ccc4ccccc4c3Br)cn12` showed an inhibition of 16.3%. `O=C(COc1ccccc1)Nc1nnc(-c2ccccc2Cl)o1` showed an inhibition of 28.7%. `CC(C)[C@H](NC(=O)c1c(F)cccc1F)C(=O)OCC(=O)NC(=O)NC1CCCC1` showed an inhibition of -2.91%. In the case of `CCC(CC)c1nc(C(N)=O)c2[nH]c(=O)n(-c3ccc(OC)c(OC)c3)c2n1`, the inhibition is reported as 2.9%. `COCCCn1c(=O)/c(=C\c2ccccc2OC(C)C)s/c1=C(/C#N)C(=O)Nc1ccc(C(=O)O)cc1` showed an inhibition of 33%. `CC1CCN(CC(CS(=O)(=O)c2ccc([N+](=O)[O-])cc2)N2CCC(C)CC2)CC1` (centres undefined) showed an inhibition of 3.44%. In the case of `Cc1cc(C)c(OCC(=O)Nc2ccc(N3CCOCC3)cc2)c(Br)c1`, the inhibition is reported as -3.46%. Work on `Cc1cccc(S(=O)(=O)C(C#N)c2nc3ccccc3nc2N2CCOCC2)c1` (centres undefined) yielded an inhibition of -6.06%. `CCc1nc(Nc2cccc(OC)c2)c2oc3ccccc3c2n1` gave an inhibition of 9.89%. For `OC(COC(c1ccccc1)c1ccccc1)CN1CCN(c2cccc(Cl)c2)CC1` (centres undefined), the inhibition was 21.9%. `O=C(CSc1nnc(NC(=O)c2ccccc2)s1)NCC1CCCO1` (centres undefined) showed an inhibition of 0.56%. Compound `CCOC(=O)N1CCC(NC(=O)c2ccc(NC(=O)C3CCCO3)cc2)CC1` (centres undefined) has an inhibition of -0.87%. For `COc1cc(C(=O)NCCC(=O)NCCN2CCCCCC2)cc(OC)c1OC`, the inhibition was -5.5%. `Cc1nnc(NC(=O)c2cc(S(=O)(=O)N3CCCCC3)ccc2Cl)s1` gave an inhibition of -2.72%. For `CCCN1CCN(CCCNC(=O)CN2C(=O)c3cccnc3Oc3ccc(Cl)cc32)CC1`, the inhibition was -1.63%. `COc1ccc(N(CC(=O)NC2CCCCCC2)S(=O)(=O)c2ccccc2)cc1Cl` gave an inhibition of 11.1%. Work on `O=C(Nc1ccccc1C(=O)NCCCN1CCOCC1)c1ccc(Cl)cc1` yielded an inhibition of 3.37%. `CCOc1ccc(S(=O)(=O)N(C(=O)c2ccco2)c2cc3sc(=O)oc3c3ccccc23)cc1` showed an inhibition of 5.37%. With `Nc1nnc(SCC(=O)N2CCN(c3ccccc3)CC2)s1` the inhibition was 6.69%. `CC[C@]1(c2ccccc2OC)C(=O)N(C(=O)OC)N1C(=O)OC` gave an inhibition of -0.56%. Work on `COc1ccc(OC)c(NC(=O)c2sc3nc(Cc4ccccc4)cc(C(F)(F)F)c3c2N)c1` yielded an inhibition of -2.11%. For `CCn1cc(CN2CCC(C(=O)Nc3ccc(Oc4cccnc4)cc3)CC2)c(C)n1`, the inhibition was 1.35%. `CN1CCN(C(=O)C2CCC(=O)N(CCc3cccc(F)c3)C2)CC1` (centres undefined) gave an inhibition of 1.59%. With `Cc1ccc(NC(=O)C2CCCN(S(=O)(=O)c3ccc4[nH]c(=O)ccc4c3)C2)cc1C` (centres undefined) the inhibition was -7.26%. In the case of `CC(=O)c1c(NCc2ccccc2)nc(=O)n(-c2ccccc2)c1C`, the inhibition is reported as -9.48%. For `CCN1CCCC1CNC(=O)c1cc2c(=O)n(C)c3ccccc3c2n1C` (centres undefined), the inhibition was -2.36%. With `O=C(NCCCc1ccc(F)cc1)C1CCC(=O)N(CC2CCCCC2)C1` (centres undefined) the inhibition was 3.2%. With `Cc1nn(C)c(Cl)c1CN1CCC(Oc2ccc(C(=O)N3CCCC3)cc2)CC1` the inhibition was -2.16%. `Cc1ccc(-n2nnnc2Sc2nc([N+](=O)[O-])nn2C)cc1` gave an inhibition of 11.5%. For `Cc1nn(CC(=O)NCCCN2CCN(Cc3ccccc3)CC2)c(=O)c2cc(-c3ccccc3)nn12`, the inhibition was 0.78%. `Cc1cc(C(=O)Nc2c(F)cc(F)cc2Br)c(C)o1` gave an inhibition of -8.57%. With `COc1ccccc1-c1cc(-c2ccccc2)nc(=O)[nH]1` the inhibition was -6.19%. Compound `O=C(/C=C/c1ccccc1)NC1CC2CCC1C2` (centres undefined) has an inhibition of -10.2%. In the case of `CCCCN(C)Cc1cc(=O)oc2cc3c(cc12)CCCC3`, the inhibition is reported as 34.6%. Work on `COc1ccc(-c2cc3c(=O)n(CC(=O)NCCCN4CCN(Cc5ccccc5)CC4)ncn3n2)cc1` yielded an inhibition of 1.94%. `COC(=O)C1=C(C)NC(=O)/C1=C\c1cc(C)n(-c2c(C)cccc2C)c1C` gave an inhibition of 39.2%. Work on `COc1ccccc1-n1c(SCC(=O)NCC2CCCO2)nc2c([nH]c3ccccc32)c1=O` (centres undefined) yielded an inhibition of -0.58%. Compound `O=CN1CC(=O)N(c2ccccc2)c2c([nH]c3ccccc23)C1` has an inhibition of 3.1%. `O=C(CN(Cc1ccc(Br)cc1)S(=O)(=O)c1ccccc1)NCc1ccccn1` gave an inhibition of 1.29%. `C=C(C)CSc1nnc([C@@H](N)Cc2c[nH]c3ccccc23)o1` gave an inhibition of 6.62%. In the case of `CCN1CCN(S(=O)(=O)c2ccc(C(=O)Nc3ccccc3)cc2)CC1`, the inhibition is reported as -2.24%. Work on `CCc1cc(C(=O)NC2CCCc3c2cnn3-c2cccc(C)c2C)n(C)n1` (centres undefined) yielded an inhibition of -5.05%. Compound `COCCN(Cc1cc2cccc(C)c2n2nnnc12)C(=O)C(F)(F)F` has an inhibition of 2.65%. In the case of `COc1ccc(-c2ccc(-c3nnn(CC(=O)N4CCOCC4)n3)cc2)cc1`, the inhibition is reported as 1.35%. Work on `COCCC1CCCCN1C(=O)c1cc(COc2ccc(C)nc2)on1` (centres undefined) yielded an inhibition of -1.25%. `O=C(NCc1cccnc1)c1noc2c1CCCC2` gave an inhibition of -1.71%. In the case of `Cc1ccc(CC(=O)Nc2nc3ccccc3[nH]2)cc1C`, the inhibition is reported as 16.7%. In the case of `Cc1c(C(=O)N2CCN(c3ccccn3)CC2)oc2c1C(=O)CC(C)(C)C2`, the inhibition is reported as 4.7%. Work on `COC(=O)c1[nH]c2ccc(C)cc2c1NC(=O)CN1CCN(c2ccccc2)CC1` yielded an inhibition of 97%. Compound `CCOc1ccc(N=c2cc(-c3ccc(OC)cc3)oc3ccccc23)cc1` has an inhibition of 2.75%. `COc1ccc(C2=NCC(CSc3nnc(-c4ccc5c(c4)OCO5)o3)S2)cc1` (centres undefined) showed an inhibition of 0.23%. `COc1ccc2c(c1OC)C(=O)OC2Nc1nc(-c2cc3cc(Br)ccc3oc2=O)cs1` (centres undefined) gave an inhibition of 39.5%. `C=CCc1c(C)nc(SC)nc1Nc1ccc(C(=O)O)cc1` gave an inhibition of -7.64%. Compound `O=C(CSC1CS(=O)(=O)c2cc([N+](=O)[O-])ccc21)NNC(=O)c1ccccc1` (centres undefined) has an inhibition of 12.1%. `CCC1CCCCN1CCCNC(=O)CN1C(=O)c2cccnc2Oc2ccc(Cl)cc21` (centres undefined) gave an inhibition of 0.77%. With `CC(C)Oc1ccc(CN2CCC(n3nccc3NC(=O)CCc3ccccc3)CC2)cc1` the inhibition was 4.95%. In the case of `COc1cc(C(C)=O)ccc1OCc1cc(C(=O)N2CCSCC2)no1`, the inhibition is reported as -2.7%. With `Cc1ccccc1OCC(=O)N/N=C/c1cccc(Oc2ccc([N+](=O)[O-])cc2[N+](=O)[O-])c1` the inhibition was 38.1%. Compound `Clc1ccc(OCCOCCN2CCc3ccccc3C2)c(Cl)c1` has an inhibition of 97.3%. In the case of `NC(=O)c1cccc2c1-c1ccccc1/C2=N/NC(N)=S`, the inhibition is reported as 1.99%. With `CC(C)Cn1c2c(c(O)c(C(=O)Nc3nccs3)c1=O)CCCC2` the inhibition was 8.72%. With `COc1ccccc1CNC(=O)c1ccccc1OCc1ccc(F)cc1` the inhibition was 0.26%. In the case of `Cc1ccc(C)c(N2CCN(S(=O)(=O)c3ccc4c(c3)C(C)(C)C(=O)N4C)CC2)c1`, the inhibition is reported as 0.22%. For `Cc1ccc(C(=O)Nc2nnc(C3=COCCO3)o2)cc1C`, the inhibition was 97.2%. `O=C(c1ccccc1Br)N1CCN(c2ccccc2)CC1` gave an inhibition of 4.19%. `CC(C)(C)c1cc(C(=O)N/N=C/c2ccc(-c3ccccc3[N+](=O)[O-])o2)n[nH]1` gave an inhibition of 6.86%. Work on `Cn1c(C(=O)c2ccccc2)nc2ccccc21` yielded an inhibition of 1.37%. For `CCOC(=O)c1cnc(-n2nc(C)cc2C)nc1N1CC(C)OC(C)C1` (centres undefined), the inhibition was 39.8%. Work on `Cc1cc(NC(=O)CSc2nnc(Cn3c(=O)sc4ccccc43)n2-c2ccccc2C)no1` yielded an inhibition of -14.8%. Work on `O=C1c2ccccc2N2C(=O)c3ccccc3C2N1O` (centres undefined) yielded an inhibition of 7.68%. With `CC(=O)c1ncnn1CC(=O)c1ccc(Cl)cc1Cl` the inhibition was 0.71%. `Clc1ccc(Cl)c2sc(N3CCOCC3)nc12` showed an inhibition of 5.41%. With `Cn1c(=O)c(=O)n(C)c2cc(S(=O)(=O)N3CCCC3C(=O)Nc3ccccc3F)ccc21` (centres undefined) the inhibition was -4.32%. In the case of `CCC(C(=O)NC1C(=O)N2C(C(=O)O)=C(CSc3nnc(C)s3)CSC12)c1ccccc1` (centres undefined), the inhibition is reported as -15.8%. With `COc1ccccc1N1CCN(c2ccc([N+](=O)[O-])cc2Cl)CC1` the inhibition was 33.1%. Compound `NC(N)=NS(=O)(=O)c1ccc(N)cc1` has an inhibition of 23.4%. For `CCCCCN1CC(O)=C(c2nc(-c3ccc(Cl)cc3)cs2)C1=N`, the inhibition was -1.04%. Work on `c1ccc(COc2ccc(-c3sc(Nc4ccccc4)n[n+]3-c3ccccc3)cc2)cc1` yielded an inhibition of -0.45%. Work on `Cc1ccc(NC(=O)N2CCCC(c3ccccc3)C2)cc1` (centres undefined) yielded an inhibition of -0.68%. `O=C(CS(=O)(=O)c1ccc2ccccc2c1)Nc1ccccc1Cl` showed an inhibition of -2.46%. In the case of `Cn1c(=O)c2c(ncn2CC(=O)N2CCN(S(=O)(=O)c3ccc(Cl)cc3)CC2)n(C)c1=O`, the inhibition is reported as 4.52%. Work on `Cc1cc(C)c2c(n1)SCC(=O)N2CC(=O)Nc1ccccc1Cl` yielded an inhibition of -4.85%. For `Cc1ccsc1/C=c1\sc2ncnn2c1=O`, the inhibition was 0.44%. For `CC(C)(C)c1ccc(C(=O)Nc2nnc(SCC(=O)NCC3CCCO3)s2)cc1` (centres undefined), the inhibition was 7.39%. Work on `Cn1ccnc1CN1CCCCC1C(=O)Nc1ccc(Oc2cccnc2)cc1` (centres undefined) yielded an inhibition of 8.89%.
